Reference: the supplement of paper PMC12423691
The other results are listed elsewhere or left out. Binding of human transcription factors and regulators to the viral nucleoprotein by AlphaScreen, crude cell-free proteins, amounts not normalised, one pass. Fold of the Venus control; higher = more signal. No active / inactive call. Single-pass screen; sequences are the whole Swiss-Prot entries looked up by name.

B1: SLC26A3, P40879 (protein)
chain: MIEPFGNQYIVARPVYSTNAFEENHKKTGRHHKTFLDHLKVCCSCSPQKAKRIVLSLFPIASWLPAYRLKEWLLSDIVSGISTGIVAVLQGLAFALLVDIPPVYGLYASFFPAIIYLFFGTSRHISVGPFPILSMMVGLAVSGAVSKAVPDRNATTLGLPNNSNNSSLLDDERVRVAAAASVTVLSGIIQLAFGILRIGFVVIYLSESLISGFTTAAAVHVLVSQLKFIFQLTVPSHTDPVSIFKVLYSVFSQIEKTNIADLVTALIVLLVVSIVKEINQRFKDKLPVPIPIEFIMTVIAAGVSYGCDFKNRFKVAVVGDMNPGFQPPITPDVETFQNTVGDCFGIAMVAFAVAFSVASVYSLKYDYPLDGNQELIALGLGNIVCGVFRGFAGSTALSRSAVQESTGGKTQIAGLIGAIIVLIVVLAIGFLLAPLQKSVLAALALGNLKGMLMQFAEIGRLWRKDKYDCLIWIMTFIFTIVLGLGLGLAASVAFQLLTIVFRTQFPKCSTLANIGRTNIYKNKKDYYDMYEPEGVKIFRCPSPIYFANIGFFRRKLIDAVGFSPLRILRKRNKALRKIRKLQKQGLLQVTPKGFICTVDTIKDSDEELDNNQIEVLDQPINTTDLPFHIDWNDDLPLNIEVPKISLHSLILDFSAVSFLDVSSVRGLKSILQEFIRIKVDVYIVGTDDDFIEKLNRYEFFDGEVKSSIFFLTIHDAVLHILMKKDYSTSKFNPSQEKDGKIDFTINTNGGLRNRVYEVPVETKF
B2: TP63, Q9H3D4 (protein)
chain: MNFETSRCATLQYCPDPYIQRFVETPAHFSWKESYYRSTMSQSTQTNEFLSPEVFQHIWDFLEQPICSVQPIDLNFVDEPSEDGATNKIEISMDCIRMQDSDLSDPMWPQYTNLGLLNSMDQQIQNGSSSTSPYNTDHAQNSVTAPSPYAQPSSTFDALSPSPAIPSNTDYPGPHSFDVSFQQSSTAKSATWTYSTELKKLYCQIAKTCPIQIKVMTPPPQGAVIRAMPVYKKAEHVTEVVKRCPNHELSREFNEGQIAPPSHLIRVEGNSHAQYVEDPITGRQSVLVPYEPPQVGTEFTTVLYNFMCNSSCVGGMNRRPILIIVTLETRDGQVLGRRCFEARICACPGRDRKADEDSIRKQQVSDSTKNGDGTKRPFRQNTHGIQMTSIKKRRSPDDELLYLPVRGRETYEMLLKIKESLELMQYLPQHTIETYRQQQQQQHQHLLQKQTSIQSPSSYGNSSPPLNKMNSMNKLPSVSQLINPQQRNALTPTTIPDGMGANIPMMGTHMPMAGDMNGLSPTQALPPPLSMPSTSHCTPPPPYPTDCSIVSFLARLGCSSCLDYFTTQGLTTIYQIEHYSMDDLASLKIPEQFRHAIWKGILDHRQLHEFSSPSHLLRTPSSASTVSVGSSETRGERVIDAVRFTLRQTISFPPRDEWNDFNFDMDARRNKQQRIKEEGE
B3: FOXB1, Q99853 (protein)
chain: MPRPGRNTYSDQKPPYSYISLTAMAIQSSPEKMLPLSEIYKFIMDRFPYYRENTQRWQNSLRHNLSFNDCFIKIPRRPDQPGKGSFWALHPSCGDMFENGSFLRRRKRFKVLKSDHLAPSKPADAAQYLQQQAKLRLSALAASGTHLPQMPAAAYNLGGVAQPSGFKHPFAIENIIAREYKMPGGLAFSAMQPVPAAYPLPNQLTTMGSSLGTGWPHVYGSAGMIDSATPISMASGDYSAYGVPLKPLCHAAGQTLPAIPVPIKPTPAAVPALPALPAPIPTLLSNSPPSLSPTSSQTATSQSSPATPSETLTSPASALHSVAVH
B4: ETV1, P50549 (protein)
chain: MDGFYDQQVPYMVTNSQRGRNCNEKPTNVRKRKFINRDLAHDSEELFQDLSQLQETWLAEAQVPDNDEQFVPDYQAESLAFHGLPLKIKKEPHSPCSEISSACSQEQPFKFSYGEKCLYNVSAYDQKPQVGMRPSNPPTPSSTPVSPLHHASPNSTHTPKPDRAFPAHLPPSQSIPDSSYPMDHRFRRQLSEPCNSFPPLPTMPREGRPMYQRQMSEPNIPFPPQGFKQEYHDPVYEHNTMVGSAASQSFPPPLMIKQEPRDFAYDSEVPSCHSIYMRQEGFLAHPSRTEGCMFEKGPRQFYDDTCVVPEKFDGDIKQEPGMYREGPTYQRRGSLQLWQFLVALLDDPSNSHFIAWTGRGMEFKLIEPEEVARRWGIQKNRPAMNYDKLSRSLRYYYEKGIMQKVAGERYVYKFVCDPEALFSMAFPDNQRPLLKTDMERHINEEDTVPLSHFDESMAYMPEGGCCNPHPYNEGYVY
B5: SIVA1, O15304 (protein)
chain: MPKRSCPFADVAPLQLKVRVSQRELSRGVCAERYSQEVFEKTKRLLFLGAQAYLDHVWDEGCAVVHLPESPKPGPTGAPRAARGQMLIGPDGRLIRSLGQASEADPSGVASIACSSCVRAVDGKAVCGQCERALCGQCVRTCWGCGSVACTLCGLVDCSDMYEKVLCTSCAMFET
B6: NKX6-2, Q9C056 (protein)
chain: MDTNRPGAFVLSSAPLAALHNMAEMKTSLFPYALQGPAGFKAPALGGLGAQLPLGTPHGISDILGRPVGAAGGGLLGGLPRLNGLASSAGVYFGPAAAVARGYPKPLAELPGRPPIFWPGVVQGAPWRDPRLAGPAPAGGVLDKDGKKKHSRPTFSGQQIFALEKTFEQTKYLAGPERARLAYSLGMTESQVKVWFQNRRTKWRKRHAVEMASAKKKQDSDAEKLKVGGSDAEDDDEYNRPLDPNSDDEKITRLLKKHKPSNLALVSPCGGGAGDAL
B7: ONECUT1, Q9UBC0 (protein)
chain: MNAQLTMEAIGELHGVSHEPVPAPADLLGGSPHARSSVAHRGSHLPPAHPRSMGMASLLDGGSGGGDYHHHHRAPEHSLAGPLHPTMTMACETPPGMSMPTTYTTLTPLQPLPPISTVSDKFPHHHHHHHHHHHPHHHQRLAGNVSGSFTLMRDERGLASMNNLYTPYHKDVAGMGQSLSPLSSSGLGSIHNSQQGLPHYAHPGAAMPTDKMLTPNGFEAHHPAMLGRHGEQHLTPTSAGMVPINGLPPHHPHAHLNAQGHGQLLGTAREPNPSVTGAQVSNGSNSGQMEEINTKEVAQRITTELKRYSIPQAIFAQRVLCRSQGTLSDLLRNPKPWSKLKSGRETFRRMWKWLQEPEFQRMSALRLAACKRKEQEHGKDRGNTPKKPRLVFTDVQRRTLHAIFKENKRPSKELQITISQQLGLELSTVSNFFMNARRRSLDKWQDEGSSNSGNSSSSSSTCTKA
B8: TFDP2, Q14188 (protein)
chain: MTAKNVGLTSTNAEVRGFIDQNLSPTKGNISFVAFPVSNTNSPTKILPKTLGPINVNVGPQMIISTPQRLTSSGSVLIGSPYTPAPAMVTQTHIAEATGWVPGDRKRARKFIDSDFSESKRSKKGDKNGKGLRHFSMKVCEKVQRKGTTSYNEVADELVSEFTNSNNHLAADSAYDQKNIRRRVYDALNVLMAMNIISKEKKEIKWIGLPTNSAQECQNLEIEKQRRIERIKQKRAQLQELLLQQIAFKNLVQRNRQNEQQNQGPPALNSTIQLPFIIINTSRKTVIDCSISSDKFEYLFNFDNTFEIHDDIEVLKRMGMSFGLESGKCSLEDLKLAKSLVPKALEGYITDISTGPSWLNQGLLLNSTQSVSNLDLTTGATLPQSSVNQGLCLDAEVALATGQFLAPNSHQSSSAASHCSESRGETPCSFNDEDEEDDEEDSSSPE
B9: SREBF2, Q12772 (protein)
chain: MDDSGELGGLETMETLTELGDELTLGDIDEMLQFVSNQVGEFPDLFSEQLCSSFPGSGGSGSSSGSSGSSSSSSNGRGSSSGAVDPSVQRSFTQVTLPSFSPSAASPQAPTLQVKVSPTSVPTTPRATPILQPRPQPQPQPQTQLQQQTVMITPTFSTTPQTRIIQQPLIYQNAATSFQVLQPQVQSLVTSSQVQPVTIQQQVQTVQAQRVLTQTANGTLQTLAPATVQTVAAPQVQQVPVLVQPQIIKTDSLVLTTLKTDGSPVMAAVQNPALTALTTPIQTAALQVPTLVGSSGTILTTMPVMMGQEKVPIKQVPGGVKQLEPPKEGERRTTHNIIEKRYRSSINDKIIELKDLVMGTDAKMHKSGVLRKAIDYIKYLQQVNHKLRQENMVLKLANQKNKLLKGIDLGSLVDNEVDLKIEDFNQNVLLMSPPASDSGSQAGFSPYSIDSEPGSPLLDDAKVKDEPDSPPVALGMVDRSRILLCVLTFLCLSFNPLTSLLQWGGAHDSDQHPHSGSGRSVLSFESGSGGWFDWMMPTLLLWLVNGVIVLSVFVKLLVHGEPVIRPHSRSSVTFWRHRKQADLDLARGDFAAAAGNLQTCLAVLGRALPTSRLDLACSLSWNVIRYSLQKLRLVRWLLKKVFQCRRATPATEAGFEDEAKTSARDAALAYHRLHQLHITGKLPAGSACSDVHMALCAVNLAECAEEKIPPSTLVEIHLTAAMGLKTRCGGKLGFLASYFLSRAQSLCGPEHSAVPDSLRWLCHPLGQKFFMERSWSVKSAAKESLYCAQRNPADPIAQVHQAFCKNLLERAIESLVKPQAKKKAGDQEEESCEFSSALEYLKLLHSFVDSVGVMSPPLSRSSVLKSALGPDIICRWWTSAITVAISWLQGDDAAVRSHFTKVERIPKALEVTESPLVKAIFHACRAMHASLPGKADGQQSSFCHCERASGHLWSSLNVSGATSDPALNHVVQLLTCDLLLSLRTALWQKQASASQAVGETYHASGAELAGFQRDLGSLRRLAHSFRPAYRKVFLHEATVRLMAGASPTRTHQLLEHSLRRRTTQSTKHGEVDAWPGQRERATAILLACRHLPLSFLSSPGQRAVLLAEAARTLEKVGDRRSCNDCQQMIVKLGGGTAIAAS

The binders below were run against nucleoprotein N of Crimean-Congo hemorrhagic fever virus (assay: AlphaScreen luminescence signal relative to Venus negative control (fold); higher = stronger binding to CCHFV N).
Description: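 AlphaScreen binding of cell-free made, FLAG-GST-tagged human transcription factors and regulators (crude translation products) to biotinylated N protein; signal as fold of the FLAG-GST-Venus control. One pass.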
Binder B1 has an AlphaScreen luminescence signal of 4.93. B2 was tested, and the AlphaScreen luminescence signal was 2.19. In the case of B3, the AlphaScreen luminescence signal is reported as 2.7. In the case of B4, the AlphaScreen luminescence signal is reported as 1.53. B5 showed an AlphaScreen luminescence signal of 2.05. Work on B6 yielded an AlphaScreen luminescence signal of 2.88. In the case of B7, the AlphaScreen luminescence signal is reported as 1.58. B8 showed an AlphaScreen luminescence signal of 1.95. With B9 the AlphaScreen luminescence signal was 2.19.
